The other results are listed elsewhere or left out. Viral Rep nickase domains cut single-stranded DNA in vitro (3 µM enzyme, 1 h, 37 °C); shown is the middle of each 90-letter strand. Uncut reads are compared with the no-enzyme pool on a log2 scale; the lower, the more was cut; hits are not called. Shares of all reads are compared, so uncut sequences can rise above 0 when many others are cut.
Legend:
Experiment in all cases: uncleaved DNA left, log2 of reads against the no-enzyme library (log2 ratio); higher = less cleavage (more negative = more Rep cleavage of the k-mer); sequences stand for … in CTCGTCCG…ACCGGAGA
[1] = test system: T1, Rep nickase domain of Muscovy duck circovirus
T1 sequence (protein, residues 1-111, tag omitted): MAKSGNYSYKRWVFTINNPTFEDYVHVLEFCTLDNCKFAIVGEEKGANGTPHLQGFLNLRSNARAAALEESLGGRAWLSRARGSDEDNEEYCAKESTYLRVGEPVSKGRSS
Experimental: (§1)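 A pool of 90-nt single-stranded DNAs with seven random bases just before the constant AC of the nick site (name = the seven bases) was cut by 3 µM recombinant His6-SUMO-tagged Rep nickase domain (300 nM DNA, 50 mM HEPES pH 8.0, 50 mM NaCl, 1 mM MnCl2, 1 h, 37 °C, three replicates). Uncut DNA was amplified and sequenced.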

[2] = test system: T2, Rep nickase domain of banana bunchy top virus
T2 sequence (protein, residues 1-94, tag omitted): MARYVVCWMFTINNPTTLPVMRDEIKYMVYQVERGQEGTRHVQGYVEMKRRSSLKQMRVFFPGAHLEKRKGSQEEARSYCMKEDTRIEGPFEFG
Experimental: as §1

[3] = test system: T3, Rep nickase domain of cabbage leaf curl virus
T3 sequence (protein, residues 1-116, tag omitted): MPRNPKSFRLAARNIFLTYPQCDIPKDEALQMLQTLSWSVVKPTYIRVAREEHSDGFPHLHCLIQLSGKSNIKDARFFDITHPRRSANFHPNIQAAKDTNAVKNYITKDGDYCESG
Experimental: as §1

[4] = test system: T4, Rep nickase domain of chickpea chlorotic dwarf virus
T4 sequence (protein, residues 1-124, tag omitted): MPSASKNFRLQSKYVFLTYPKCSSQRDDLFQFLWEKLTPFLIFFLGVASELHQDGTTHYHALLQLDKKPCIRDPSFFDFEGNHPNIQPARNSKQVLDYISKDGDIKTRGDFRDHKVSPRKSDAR
Experimental: as §1

[5] = test system: T5, Rep nickase domain of faba bean necrotic yellows virus
T5 sequence (protein, residues 1-98, tag omitted): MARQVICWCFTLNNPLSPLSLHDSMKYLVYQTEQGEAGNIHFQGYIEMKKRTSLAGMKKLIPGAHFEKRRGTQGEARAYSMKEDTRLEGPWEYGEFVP
Experimental: as §1

[6] = test system: T6, Rep nickase domain of maize striate mosaic virus
T6 sequence (protein, residues 1-117, tag omitted): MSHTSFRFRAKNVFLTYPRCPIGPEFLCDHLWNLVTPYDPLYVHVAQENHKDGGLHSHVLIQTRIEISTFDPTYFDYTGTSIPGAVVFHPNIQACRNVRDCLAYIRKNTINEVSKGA
Experimental: as §1

[7] = test system: T7, Rep nickase domain of porcine circovirus 2
T7 sequence (protein, residues 2-116, tag omitted): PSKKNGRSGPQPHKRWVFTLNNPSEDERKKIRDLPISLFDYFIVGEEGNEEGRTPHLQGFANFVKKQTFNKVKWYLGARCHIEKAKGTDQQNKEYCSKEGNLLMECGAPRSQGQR
Experimental: as §1

[8] = test system: T8, Rep nickase domain of tomato golden mosaic virus
T8 sequence (protein, residues 1-124, tag omitted): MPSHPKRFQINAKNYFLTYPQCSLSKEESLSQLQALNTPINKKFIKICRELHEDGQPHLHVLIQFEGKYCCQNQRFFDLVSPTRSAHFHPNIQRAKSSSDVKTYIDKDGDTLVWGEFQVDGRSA
Experimental: as §1

[9] = test system: T9, Rep nickase domain of tomato yellow leaf curl virus
T9 sequence (protein, residues 1-136, tag omitted): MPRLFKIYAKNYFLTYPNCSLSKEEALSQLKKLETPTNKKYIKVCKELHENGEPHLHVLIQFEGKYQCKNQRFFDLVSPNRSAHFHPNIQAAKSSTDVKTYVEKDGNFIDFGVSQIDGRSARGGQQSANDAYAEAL
Experimental: as §1

[10] = test system: T10, Rep nickase domain of wheat dwarf virus
T10 sequence (protein, residues 1-137, tag omitted): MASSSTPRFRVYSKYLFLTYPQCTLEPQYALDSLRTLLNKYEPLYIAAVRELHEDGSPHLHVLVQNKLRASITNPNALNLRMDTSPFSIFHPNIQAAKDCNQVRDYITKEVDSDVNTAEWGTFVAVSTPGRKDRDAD
Experimental: as §1

Sequence	uncleaved DNA left (log2) [1]	uncleaved DNA left (log2) [2]	uncleaved DNA left (log2) [3]	uncleaved DNA left (log2) [4]	uncleaved DNA left (log2) [5]	uncleaved DNA left (log2) [6]	uncleaved DNA left (log2) [7]	uncleaved DNA left (log2) [8]	uncleaved DNA left (log2) [9]	uncleaved DNA left (log2) [10]
ACAGGTA	-0.0698	-0.106	-0.117	-0.383	-0.104	-0.173	0.0846	0.136	0.0306	-0.0248
GGCTCCT	-0.0344	-0.0416	0.159	0.203	-0.0165	0.827	-0.483	-0.115	0.049	0.0455
AGTTTCA	-0.0851	0.0233	0.105	-0.668	-0.0849	0.286	-0.683	0.0147	0.0923	0.0192
GAAGCCT	-0.00386	-0.0428	-0.268	-1.6	0.00263	0.343	-0.231	-0.163	-0.0502	-0.0907
CACTACT	-3.5	-3.61	-2.87	-3.65	-1.67	-1.49	-4.3	-0.933	-0.128	-0.431
TATAAAT	-0.0589	-0.383	-0.303	-1.77	0.0391	-0.124	-2.34	-0.0125	0.058	0.0308
AAATTCC	-0.167	-0.0259	-2.24	-2.1	0.00974	-0.661	-2.6	-0.245	-0.00304	-0.398
AAACTCG	-0.0259	-0.014	-0.818	-0.768	0.0677	-1.16	0.108	0.0153	-0.0402	-0.121
TTGTCCG	0.0163	-0.0584	-0.812	-0.0186	-0.0661	-1.06	-0.0334	-0.151	-0.0877	-0.247
CGACCGA	0.00481	-0.0777	-0.0396	-0.00513	0.0908	-0.17	0.0854	-0.0965	0.0453	0.0242
ACTGGCG	-0.0159	0.18	0.0559	1.46	0.119	1.01	0.217	0.0897	0.169	0.0468
TAAGCTA	-0.0112	-0.00537	-0.407	-2.42	-0.0284	0.779	0.101	0.0203	-0.203	-0.166
CTTCGAT	0.0269	-0.205	0.00296	-0.386	-0.053	-0.215	-0.207	-0.0307	-0.0277	-0.0507
GGTCTAG	0.0317	-0.00949	0.16	0.166	0.0474	-0.187	0.0851	0.024	0.0631	0.121
TGGTGAT	0.0504	0.0523	0.419	1.52	-0.0433	1.93	-0.673	0.133	0.00387	0.0614
CGATTCA	0.0251	0.0599	0.06	-0.641	0.129	-0.289	0.0534	-0.0174	0.102	0.176
GTGCGCA	-0.00777	-0.0461	-0.139	0.165	0.00116	-0.163	0.0267	-0.0572	-0.107	-0.0536
GTAGTGC	-0.102	0.0209	-0.04	0.0189	-0.00866	-0.459	-0.105	-0.00778	0.0269	-0.039
TGGGAAT	0.133	0.149	0.772	2.04	0.126	2.25	0.139	0.11	0.0272	0.222
CTCCGTT	0.203	-0.00502	0.0848	-0.567	0.096	0.292	-0.0769	-0.00576	-0.0134	0.0856
AGATGTA	-0.0229	0.232	0.255	0.0437	0.0663	0.537	-0.202	0.155	0.0185	0.101
TCGAGTC	0.0211	0.117	0.161	0.127	0.18	-0.353	-0.0385	-0.0304	0.072	0.0107
TCTGCTG	0.0784	-0.0861	0.0706	0.692	-0.00934	0.677	0.171	0.159	-0.00453	-0.0154
TGCGCCT	-0.157	-0.021	0.0151	-0.493	-0.0495	-0.073	-0.0829	-0.0301	-0.0211	-0.0852
ACGCGTT	0.0805	0.0937	-0.594	-0.951	0.272	-0.876	-0.0055	0.0819	0.0988	0.0207
GGATTAG	0.0495	-0.0588	-0.19	-0.0436	0.0502	-0.69	0.0767	0.0185	0.0357	-0.0147
TCGTATG	0.305	0.257	0.0337	0.00591	0.17	-0.102	0.327	0.194	0.103	0.189
CCCAGCG	-0.0961	-0.139	-0.749	0.389	-0.11	-0.61	0.0457	-0.0595	-0.0433	-0.0647
GGAAGTG	0.0191	-0.0419	-0.0113	0.108	0.0498	-0.204	0.167	-0.0895	-0.0497	0.0211
TAACCCT	-0.424	-0.109	-3.2	-3.13	-0.00259	-1.73	-1.58	-0.816	-0.13	-2.15

Source: the supplement of paper PMC7826260
